# In all, about 4,800 compounds went through this assay and about 420 (8.8%) showed an effect of 50% or more. The list shows a part of the results.
# Test system: Plasmodium falciparum
# Assay: Confirmatory screen in NF54 nanoGlo assay, in single point, at 2uM, 72h
# Format: functional, Erythrocyte
# Conditions: timepoint 72 hour
row,SMILES,% Inhibition
1,CC(C)(C)c1ccnc(N[C@H]2CO[C@H]3[C@@H]2OC[C@@H]3NC(=O)NCc2ccccc2)n1,18%
2,C#CCn1ccc(O)c(Cc2ccccc2)c1=O,10%
3,CC1CCN(c2nc3c(c(Oc4cccc(F)c4)n2)CN(Cc2ccccn2)CC3)CC1,14%
4,CCC(=O)O[C@@]1(c2ccc(C3CC3)cc2)CCCN(Cc2ccccc2)C1,3%
5,N#Cc1cnn2ccc(-c3ccc4c(c3)CCC4)nc12,-10%
6,Cn1cnnc1NC(=O)[C@@H]1CC=CCC1,-7%
7,O=C1CCC(C(=O)N2CCC[C@H]2c2ccncc2)=NN1c1ccccc1,-10%
8,Cc1ccc(-c2csc(N3C(=O)CC4CS(=O)(=O)CC43)n2)cc1C (stereo not drawn),3%
9,C[C@@H](c1cccs1)N(C)C(=O)CN1C(=O)COc2ccccc21,-2%
10,CCC1=C(c2ccc(C)cc2)S(=O)(=O)N=C1N1CCC(C(=O)NCCN2CCCC[C@@H]2C)CC1,44%
11,CCc1nc2cc(N3CCC(C(=O)Nc4ccc5c(c4)OCO5)CC3)cnc2nc1CC,61%
12,NC(=O)CN1CC2(CCCCC2)N(Cc2c(F)cccc2Cl)CC1=O,-15%
13,Cc1cc(N2CCO[C@@H](Cn3cccn3)C2)c2ccc(F)c(F)c2n1,3%
14,O=C(N[C@H](c1ccccc1)C1CC1)N1CCN(S(=O)(=O)c2cccc(F)c2)CC1,4%
15,CC1(C)CCC(Nc2ccc(C(N)=O)nn2)CC1,70%
16,NC1CC(NCCc2cccc3cccnc23)c2ccccc21 (stereo not drawn),43%
17,Cn1cc(C(=O)N2N=CC[C@]2(O)C(F)(F)F)cn1,1%
18,CCOC(=O)N1CCN(C(=O)c2cnn3c(-c4ccc(C(C)C)cc4)ccnc23)CC1,-6%
19,Brc1ccc(NCc2[nH]nnc2-c2ccccc2)cc1,2%
20,Cc1cccc(N2CCN(C(=O)CCC3=Nc4cc(C(F)(F)F)ccc4S(=O)(=O)N3)CC2)c1C,2%
21,COc1cccc(NC(=O)CN2CN(c3ccccc3)C3(CCN(C(=O)C[C@@H](C)CC(C)(C)C)CC3)C2=O)c1,10%

row,SMILES,% Inhibition
1,COCC1(C(=O)N2CCN(c3cncc4ccccc34)CC2)CCC1,4%
2,C=CCOc1ccc(Cl)c(C(=O)N[C@H]2CCS(=O)(=O)C2)n1,0%
3,O=C(C1CCCC1)N1CCN(S(=O)(=O)c2ccccc2)CC1,-5%
4,O=C(O)c1cc(C=Cc2ccc3ncccc3c2)ncn1,3%
5,CC(NC(Cc1ccccc1)C(=O)N1CCCCC1)c1ccncc1 (stereo not drawn),-15%
6,O=C(Nc1ccsc1C(=O)NCc1cc(F)cc(F)c1)c1cnccn1,0%
7,Cc1cc2nnc(-c3nc4ccccc4[nH]3)c(N)n2n1,-10%
8,O=C(NCC(N1CCOCC1)C(F)(F)F)C1CC12CCOC2 (stereo not drawn),1%
9,CCC(=O)Nc1nc2ccc(NS(=O)(=O)c3cccc4nsnc34)cc2s1,-6%
10,Cc1cncn1C1CCN(C(=O)C2(Cc3ccccc3)CC3CCC2C3)CC1 (stereo not drawn),-3%
11,CO[C@H]1c2ccccc2C(=O)N1C1CCCCCCCCCCC1,4%
12,COc1ccc(N2CCN(c3nccn4nc(-c5cccs5)cc34)CC2)cc1,6%
13,COc1cc(N2CCn3c(nc4cc(Cl)ccc43)C2)ccc1NC(=O)C1CCCCC1,-3%
14,CCOC(=O)c1ncn(C2CCN(C(=O)c3cccc(Cn4ccnc4)c3)CC2)c1N,-3%
15,O=C(NC1CCOCC1)c1ccc(-c2ccc(F)c(F)c2F)cn1,6%
16,O=C(c1ccccc1F)N(Cc1nccn1Cc1c(F)cccc1Cl)C1CC1,36%
17,Cc1nn(C)c(NC(=O)CCc2c[nH]cn2)c1C,-9%
18,CCC(C)(C)C(=O)N1CCC[C@@H]1CCc1ncc(C)n1C(C)C,4%
19,CC1(C)Cc2cc(S(=O)(=O)N[C@H]3CCC(=O)NC3(C)C)ccc2O1,-11%
20,CCCOc1cc2nc(C(F)(F)F)cc(-c3cccs3)c2cc1OCCC,-4%
21,Cc1nc2ccccc2n1CCC(=O)N1CCN(Cc2ccc3c(c2)OCO3)CC1,2%

row,SMILES,% Inhibition
1,O=C1CN(C(=O)C2CC2c2ccccc2C(F)(F)F)CCN1 (stereo not drawn),-12%
2,CCn1cc(S(=O)(=O)N(C)Cc2nn(CC)cc2Cl)cn1,2%
3,N#Cc1ccc(CNc2ccccc2OCC(F)F)o1,-10%
4,N#Cc1c(CN(CCn2cccn2)Cc2cn3ccccc3c2C#N)cn2ccccc12,-15%
5,Cc1ccc(C)c(C(=O)N2C[C@@H]3CN(C(=O)C4CCC4)C[C@]3(C(=O)O)C2)c1,-6%
6,O=C(CNc1cccc(C(F)(F)F)c1)OCC(=O)N1CCNC1=O,4%
7,O=C(CCc1ccc(Cl)c(C(F)(F)F)c1)N1CC[C@H](N2CCc3ccccc3C2)C1,52%
8,COc1cccc(NC(=O)Cn2c(C)ccc(NS(=O)(=O)c3ccc(C)cc3)c2=O)c1,63%
9,CC(C)NC(=O)[C@H](C)N(C)Cc1nccn1CC(F)(F)F,-1%
10,Cc1sc(NC(N)=O)nc1Cc1ccccc1,-3%
11,O=C(NCCCc1ccccc1)[C@H]1CCCN(c2nc3ccccc3[nH]2)C1,-6%
12,CC(C)(CC(=O)O)CC(=O)Nc1ccc(Cc2nnc3ccccn23)cc1,-4%
13,Cc1ccc(S(=O)(=O)NCC2(CNS(=O)(=O)c3ccc(C)cc3)CN(S(=O)(=O)c3ccc(C)cc3)C2)cc1,7%
14,CCn1c(=O)c(N2CCC(C(=O)N3CCN(c4ccccc4F)CC3)CC2)nc2cccnc21,-12%
15,Cc1c2c(C(F)(F)F)cc(=O)n(CCC(=O)Nc3ncc(Cl)cc3Cl)c2nn1C,-11%
16,COc1cc(Br)ccc1N,1%
17,Cc1cc(C)c2c(c1)[C@@H](C)CC(C)(C)N2C(=O)c1sc2ccccc2c1Cl,0%
18,C[C@@H](C(=O)NCCN1CCCCC1)N1C(=O)COc2ccc(C(=O)COc3ccccc3Cl)cc21,-5%
19,O=S(=O)(NC1CCCCC1)c1ccc(Cl)c(S(=O)(=O)NC2CCCCC2)c1,0%
20,Cc1ccc(N2C(=O)c3ccccc3[C@H]2Nc2nc(C)cs2)nc1,-18%
21,Cc1c(NC(=O)N2CCC(C)C(n3ccnc3)C2)cccc1N(C)C (stereo not drawn),-1%

# — ChEMBL document CHEMBL4888484, “Replenishing the malaria drug discovery pipeline: Screening and hit evaluation of the MMV Hit Generation Library 1 (HGL1) against asexual blood stage Plasmodium falciparum ,using a nano luciferase reporter read-out” (2022)
